The other results are listed elsewhere or left out.
Tests used:
Test in all cases: glycan array binding signal (z-score within array); higher = stronger binding
Details in all cases: glycan notation: IUPAC condensed, linker removed
[1] = target: Man(a1-3)[Man(a1-6)]Man(a1-6)Man(b1-4)GlcNAc(b1-4)GlcNAc
Method in brief: (§1)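 The binding signal is a Z-score computed within each array. Data were drawn from 3228 arrays in the Consortium for Functional Glycomics database, restricted to those with a known protein sequence. Scores were averaged over arrays of the same protein sequence at different concentrations or buffers, and over linkers, and negative values can be taken as non-binding.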

[2] = target: Man(a1-3)[Man(a1-6)]Man(a1-6)[Man(a1-2)Man(a1-3)]Man(b1-4)GlcNAc(b1-4)GlcNAc
Method in brief: as §1

[3] = target: Man(a1-3)[Man(a1-6)]Man(a1-6)[Man(a1-3)]Man
Method in brief: as §1

[4] = target: Man(a1-3)[Man(a1-6)]Man(a1-6)[Man(a1-3)]Man(b1-4)GlcNAc(b1-4)GlcNAc
Method in brief: as §1

[5] = target: Man(a1-3)[Man(a1-6)]Man(b1-4)GlcNAc(b1-4)GlcNAc
Method in brief: as §1

[6] = target: Man(a1-3)[Man(a1-6)]Man(b1-4)GlcNAc(b1-4)[Fuc(a1-6)]GlcNAc
Method in brief: as §1

Man(a1-6)Man = target: Man(a1-6)Man
Method in brief: as §1

[7] = target: Man(a1-6)Man(b1-4)GlcNAc(b1-4)GlcNAc
Method in brief: as §1

Man(b1-4)GlcNAc = target: Man(b1-4)GlcNAc
Method in brief: as §1

[8] = target: Man(b1-4)Man(b1-4)Man(b1-4)Man
Method in brief: as §1

[9] = target: Man(b1-4)Man(b1-4)Man(b1-4)Man(b1-4)Man
Method in brief: as §1

[10] = target: Man(b1-4)Man(b1-4)Man(b1-4)Man(b1-4)Man(b1-4)Man
Method in brief: as §1

[11] = target: Man6P(a1-3)Man(a1-3)Man(a1-3)Man(a1-2)Man
Method in brief: as §1

MurNAc(b1-4)GlcNAc = target: MurNAc(b1-4)GlcNAc
Method in brief: as §1

Neu(a2-3)Gal(b1-4)Glc = target: Neu(a2-3)Gal(b1-4)Glc
Method in brief: as §1

[12] = target: Neu(a2-3)Gal(b1-4)GlcNAc(b1-3)Gal(b1-4)[Fuc(a1-3)]GlcNAc(b1-3)Gal(b1-4)Glc
Method in brief: as §1

[13] = target: Neu(a2-3)Gal(b1-4)GlcNAc6S(b1-3)Gal(b1-4)Glc
Method in brief: as §1

[14] = target: Neu(a2-3)Gal(b1-4)[Fuc(a1-3)]GlcNAc(b1-3)Gal(b1-4)Glc
Method in brief: as §1

[15] = target: Neu(a2-3)Gal(b1-4)[Fuc(a1-3)]GlcNAc6S(b1-3)Gal(b1-4)Glc
Method in brief: as §1

[16] = target: Neu(a2-3)Gal6S(b1-4)[Fuc(a1-3)]GlcN(b1-3)Gal(b1-4)Glc
Method in brief: as §1

Neu(a2-6)Gal(b1-4)Glc = target: Neu(a2-6)Gal(b1-4)Glc
Method in brief: as §1

[17] = target: Neu4Ac5Ac(a2-3)Gal(b1-4)Glc
Method in brief: as §1

[18] = target: Neu4Me5Ac(a2-3)Gal(b1-4)Glc
Method in brief: as §1

Neu5Ac(a2-2)Glc = target: Neu5Ac(a2-2)Glc
Method in brief: as §1

[19] = target: Neu5Ac(a2-3)4dGal(b1-4)[Fuc(a1-3)]GlcNAc(b1-3)Gal
Method in brief: as §1

[20] = target: Neu5Ac(a2-3)6dGal(b1-4)[Fuc(a1-3)]GlcNAc(b1-3)Gal
Method in brief: as §1

Neu5Ac(a2-3)Gal = target: Neu5Ac(a2-3)Gal
Method in brief: as §1

[21] = target: Neu5Ac(a2-3)Gal(b1-3)6dGalNAc
Method in brief: as §1

[22] = target: Neu5Ac(a2-3)Gal(b1-3)GalNAc
Method in brief: as §1

[23] = target: Neu5Ac(a2-3)Gal(b1-3)GalNAc(b1-3)Gal(a1-4)Gal(b1-4)Glc
Method in brief: as §1

[24] = target: Neu5Ac(a2-3)Gal(b1-3)GalNAc(b1-3)Gal(b1-4)GlcNAc
Method in brief: as §1

[25] = target: Neu5Ac(a2-3)Gal(b1-3)GalNAc(b1-4)Gal(b1-4)Glc
Method in brief: as §1

[26] = target: Neu5Ac(a2-3)Gal(b1-3)GalNAc(b1-4)[Neu5Ac(a2-3)]Gal(b1-4)Glc
Method in brief: as §1

[27] = target: Neu5Ac(a2-3)Gal(b1-3)GalNAc(b1-4)[Neu5Ac(a2-8)Neu5Ac(a2-3)]Gal(b1-4)Glc
Method in brief: as §1

[28] = target: Neu5Ac(a2-3)Gal(b1-3)GalNAc6S
Method in brief: as §1

[29] = target: Neu5Ac(a2-3)Gal(b1-3)GalNAc6S(b1-4)Gal(b1-4)Glc
Method in brief: as §1

[30] = target: Neu5Ac(a2-3)Gal(b1-3)GlcNAc
Method in brief: as §1

[31] = target: Neu5Ac(a2-3)Gal(b1-3)GlcNAc(b1-2)Man
Method in brief: as §1

[32] = target: Neu5Ac(a2-3)Gal(b1-3)GlcNAc(b1-2)Man(a1-3)[GlcNAc(b1-4)][Neu5Ac(a2-3)Gal(b1-3)GlcNAc(b1-2)Man(a1-6)]Man(b1-4)GlcNAc(b1-4)GlcNAc
Method in brief: as §1

[33] = target: Neu5Ac(a2-3)Gal(b1-3)GlcNAc(b1-2)Man(a1-3)[Neu5Ac(a2-3)Gal(b1-3)GlcNAc(b1-2)Man(a1-6)]Man(b1-4)GlcNAc(b1-4)GlcNAc
Method in brief: as §1

[34] = target: Neu5Ac(a2-3)Gal(b1-3)GlcNAc(b1-3)Gal(b1-3)GlcNAc
Method in brief: as §1

[35] = target: Neu5Ac(a2-3)Gal(b1-3)GlcNAc(b1-3)Gal(b1-4)Glc
Method in brief: as §1

[36] = target: Neu5Ac(a2-3)Gal(b1-3)GlcNAc(b1-3)Gal(b1-4)GlcNAc
Method in brief: as §1

[37] = target: Neu5Ac(a2-3)Gal(b1-3)GlcNAc(b1-3)GalNAc
Method in brief: as §1

[38] = target: Neu5Ac(a2-3)Gal(b1-3)GlcNAc(b1-3)[Fuc(a1-3)[Gal(b1-4)]GlcNAc(b1-6)]Gal(b1-4)Glc
Method in brief: as §1

B1: CLEC5A (Homo sapiens), Q9NY25 (protein)
chain: MNWHMIISGLIVVVLKVVGMTLFLLYFPQIFNKSNDGFTTTRSYGTVSQIFGSSSPSPNGFITTRSYGTVCPKDWEFYQARCFFLSTSESSWNESRDFCKGKGSTLAIVNTPEKLKFLQDITDAEKYFIGLIYHREEKRWRWINNSVFNGNVTNQNQNFNCATIGLTKTFDAASCDISYRRICEKNAK
glycan array binding signal (z-score) [1]: 0.644
glycan array binding signal (z-score) [2]: -0.185
glycan array binding signal (z-score) [3]: -0.301
glycan array binding signal (z-score) [4]: 0.488
glycan array binding signal (z-score) [5]: -0.26
glycan array binding signal (z-score) [6]: 0.022
glycan array binding signal (z-score) (Man(a1-6)Man): -0.259
glycan array binding signal (z-score) [7]: -0.32
glycan array binding signal (z-score) (Man(b1-4)GlcNAc): 0.086
glycan array binding signal (z-score) [8]: -0.32
glycan array binding signal (z-score) [9]: 0.258
glycan array binding signal (z-score) [10]: -0.32
glycan array binding signal (z-score) [11]: 0.066
glycan array binding signal (z-score) (MurNAc(b1-4)GlcNAc): -0.179
glycan array binding signal (z-score) (Neu(a2-3)Gal(b1-4)Glc): 0.114
glycan array binding signal (z-score) [12]: -0.32
glycan array binding signal (z-score) [13]: -0.32
glycan array binding signal (z-score) [14]: -0.32
glycan array binding signal (z-score) [15]: -0.32
glycan array binding signal (z-score) [16]: -0.224
glycan array binding signal (z-score) (Neu(a2-6)Gal(b1-4)Glc): 0.017
glycan array binding signal (z-score) [17]: -0.32
glycan array binding signal (z-score) [18]: -0.32
glycan array binding signal (z-score) (Neu5Ac(a2-2)Glc): -0.32
glycan array binding signal (z-score) [19]: -0.127
glycan array binding signal (z-score) [20]: -0.127
glycan array binding signal (z-score) (Neu5Ac(a2-3)Gal): -0.314
glycan array binding signal (z-score) [21]: -0.32
glycan array binding signal (z-score) [22]: 0.232
glycan array binding signal (z-score) [23]: -0.18
glycan array binding signal (z-score) [24]: -0.262
glycan array binding signal (z-score) [25]: -0.32
glycan array binding signal (z-score) [26]: -0.297
glycan array binding signal (z-score) [27]: 0.362
glycan array binding signal (z-score) [28]: -0.212
glycan array binding signal (z-score) [29]: -0.32
glycan array binding signal (z-score) [30]: -0.254
glycan array binding signal (z-score) [31]: -0.241
glycan array binding signal (z-score) [32]: -0.199
glycan array binding signal (z-score) [33]: -0.428
glycan array binding signal (z-score) [34]: -0.098
glycan array binding signal (z-score) [35]: -0.175
glycan array binding signal (z-score) [36]: 0.002
glycan array binding signal (z-score) [37]: -0.151
glycan array binding signal (z-score) [38]: -0.32

— the supplement of paper PMC8728848
